According to patent US20110021424A1 (published 2011):

Experiments:
Test in all cases: dot blot
[1] = target: T1, alpha-1 antichymotrypsin (RDI, #RDI-SCP-159-0) (human, UniProt P01011 24-423)
T1 sequence (looked up): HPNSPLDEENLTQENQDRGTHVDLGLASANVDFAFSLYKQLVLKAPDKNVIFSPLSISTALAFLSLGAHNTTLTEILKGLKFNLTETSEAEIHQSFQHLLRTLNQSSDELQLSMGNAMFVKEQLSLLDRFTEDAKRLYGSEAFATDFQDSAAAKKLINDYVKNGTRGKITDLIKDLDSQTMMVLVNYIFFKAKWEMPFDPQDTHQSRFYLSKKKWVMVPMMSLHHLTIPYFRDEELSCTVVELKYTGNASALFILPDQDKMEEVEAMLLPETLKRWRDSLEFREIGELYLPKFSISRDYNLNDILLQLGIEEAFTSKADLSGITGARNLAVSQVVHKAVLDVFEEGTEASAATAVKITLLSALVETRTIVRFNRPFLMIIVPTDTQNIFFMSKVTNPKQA

hemopexin (Agilent) = target: T2, hemopexin (Agilent) (human, UniProt P02790 24-462)
T2 sequence (looked up): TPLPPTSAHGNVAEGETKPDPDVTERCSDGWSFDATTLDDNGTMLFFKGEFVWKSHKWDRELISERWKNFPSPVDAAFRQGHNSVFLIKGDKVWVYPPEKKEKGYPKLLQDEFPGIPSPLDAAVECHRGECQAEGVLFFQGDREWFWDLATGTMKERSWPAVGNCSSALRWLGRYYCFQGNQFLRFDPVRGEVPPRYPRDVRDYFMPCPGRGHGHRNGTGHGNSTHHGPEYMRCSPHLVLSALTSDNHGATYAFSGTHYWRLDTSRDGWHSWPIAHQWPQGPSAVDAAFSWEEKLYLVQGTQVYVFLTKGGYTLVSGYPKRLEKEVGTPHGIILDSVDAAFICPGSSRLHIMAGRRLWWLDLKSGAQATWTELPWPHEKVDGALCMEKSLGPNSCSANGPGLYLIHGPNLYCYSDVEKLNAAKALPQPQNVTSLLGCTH

[2] = target: human Serum Albumine (HSA, Sigma, #A3782) (human, UniProt P02768 25-609)
[3] = target: neutravidin (Pierce, #31000) (UniProt P02701 25-152)
[4] = target: streptavidin (Pierce, #21122) (UniProt P22629 37-163, limits assumed)
[5] = target: transthyretin (Sigma, #P1742) (human, UniProt P02766 21-147)
[6] = target: T3, Human PDGF-sRα (R&D Systems, #322-PR/CF) (human, UniProt P16234 24-524, limits assumed)
T3 construct: Bought; also called human PDGF-Rα; PDGF-Rα

[7] = target: T4, alpha-2 macroglobulin (MP biomedicals/Cappel, #55833) (human, UniProt P01023 24-1474)
T4 sequence (looked up): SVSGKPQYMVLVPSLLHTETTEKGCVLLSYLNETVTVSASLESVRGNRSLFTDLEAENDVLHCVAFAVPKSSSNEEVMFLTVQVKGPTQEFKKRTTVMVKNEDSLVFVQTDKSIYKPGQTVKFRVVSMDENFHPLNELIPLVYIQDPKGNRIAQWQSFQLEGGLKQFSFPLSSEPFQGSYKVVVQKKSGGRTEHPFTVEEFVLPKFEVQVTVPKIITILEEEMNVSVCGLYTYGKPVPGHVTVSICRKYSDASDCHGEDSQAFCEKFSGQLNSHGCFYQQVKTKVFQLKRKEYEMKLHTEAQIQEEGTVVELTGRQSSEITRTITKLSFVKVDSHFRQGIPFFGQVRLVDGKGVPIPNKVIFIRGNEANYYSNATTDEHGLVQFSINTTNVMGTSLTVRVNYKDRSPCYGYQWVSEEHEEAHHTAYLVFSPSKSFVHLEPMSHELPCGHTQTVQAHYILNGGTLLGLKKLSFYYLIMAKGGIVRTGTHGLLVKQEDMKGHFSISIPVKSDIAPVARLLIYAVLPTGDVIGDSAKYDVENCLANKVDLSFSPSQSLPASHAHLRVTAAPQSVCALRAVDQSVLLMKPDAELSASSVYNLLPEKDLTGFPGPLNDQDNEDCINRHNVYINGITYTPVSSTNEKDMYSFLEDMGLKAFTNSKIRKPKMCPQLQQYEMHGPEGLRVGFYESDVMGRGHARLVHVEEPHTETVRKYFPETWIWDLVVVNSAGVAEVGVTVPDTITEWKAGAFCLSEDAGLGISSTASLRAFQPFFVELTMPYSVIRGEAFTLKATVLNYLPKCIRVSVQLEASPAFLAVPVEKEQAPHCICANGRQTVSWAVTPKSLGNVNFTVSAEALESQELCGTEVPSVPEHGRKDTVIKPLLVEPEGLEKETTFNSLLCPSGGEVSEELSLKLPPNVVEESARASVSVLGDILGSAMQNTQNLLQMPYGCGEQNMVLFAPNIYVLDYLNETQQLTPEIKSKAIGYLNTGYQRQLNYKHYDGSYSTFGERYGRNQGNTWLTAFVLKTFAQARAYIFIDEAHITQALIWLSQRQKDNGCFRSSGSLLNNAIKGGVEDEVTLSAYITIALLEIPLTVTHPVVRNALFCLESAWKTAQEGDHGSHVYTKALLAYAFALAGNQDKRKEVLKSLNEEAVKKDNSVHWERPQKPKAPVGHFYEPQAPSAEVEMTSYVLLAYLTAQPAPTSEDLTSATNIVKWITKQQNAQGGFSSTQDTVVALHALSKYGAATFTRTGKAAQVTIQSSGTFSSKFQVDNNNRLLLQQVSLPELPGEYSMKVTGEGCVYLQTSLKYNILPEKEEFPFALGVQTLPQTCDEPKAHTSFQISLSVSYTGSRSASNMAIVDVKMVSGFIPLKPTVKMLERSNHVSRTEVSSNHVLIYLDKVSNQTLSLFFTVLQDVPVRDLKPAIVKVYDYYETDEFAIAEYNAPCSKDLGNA

Measured: binding result

B1: His6-(Z02465)2-Cys (designed binder)
chain: MGSSHHHHHHLQVDNKFNKELIEAAAEIDALPNLNRRQWNAFIKSLVDDPSQSANLLAEAKKLNDAQAPKVDNKFNKELIEAAAEIDALPNLNRRQWNAFIKSLVDDPSQSANLLAEAKKLNDAQAPKVDC
notes: also called Z02465 (dimer)
no binding: all assays above

B2: His6-(Z02483)2-Cys (designed binder)
chain: MGSSHHHHHHLQVDNKFNKELVKAAAEIDALPNLNRRQWNAFIKSLVDDPSQSANLLAEAKKLNDAQAPKVDNKFNKELVKAAAEIDALPNLNRRQWNAFIKSLVDDPSQSANLLAEAKKLNDAQAPKVDC
notes: also called Z02483 (dimer)
no binding: all assays above
